Experimental data reported in patent US20230340081A1 (Hoffmann-La Roche, published 2023).

Columns and labels:
[1] = target: T1, Adw S-HBs protein (adw HBsAg particles, GenHevac (Adw)) (hepatitis B virus, adw subtype); assay: ELISA on recombinant HBV vaccine particles
T1 construct: also called GenHevac-B

[2] = target: T2, Ayw S-HBs protein (ayw HBsAg particles, Engerix-B (Ayw)) (hepatitis B virus, ayw subtype); assay: ELISA on recombinant HBV vaccine particles
[3] = target: T1, Adw S-HBs protein (adw HBsAg particles, …); assay: ELISA, AUC of binding curve; design: unit not given beside the values
[4] = target: T2, Ayw S-HBs protein (ayw HBsAg particles, …); assay: ELISA, AUC of binding curve; design: unit not given beside the values
[5] = target: HBV genotype D viruses (produced in HepG2.2.15 cell culture supernatant) (hepatitis B virus genotype D); assay: cell-based or functional assay

B1: Bv6.172 (antibody)
heavy: EVQLVQSGAAVRKPGESLRISCQASGFSFTNYWITWVRQRPGKGLEWMGRIDTRDSYTNYSPSFQGHVTISIDRSINTAYLQWSSLKASDTAMYYCARLSTTYPLNYYGMDVWGQGTTVTVSSASTKGPSVFPLAPSSKSTSGGTAALGCLVKDYFPEPVTVSWNSGALTSGVHTFPAVLQSSGLYSLSSVVTVPSSSLGTQTYICNVNHKPSNTKVDKRV[human IgG1 Fc not spelt out]
light: QSVLTQPPSVSGTPGQRVTISCTGSSSNIGANYDVNWYQQLPGTAPKVLIYGNTNRPSGVPDRFSGSKSGTSASLAITGLQAEDEADYYCQSYDTSLSGWVFGGGTKLTVLGQPKAAPSVTLFPPSSEELQANKATLVCLISDFYPGAVTVAWKADSSPVKAGVETTTPSKQSNNKYAASSYLSLTPEQWKSHRSYSCQVTHEGSTVEKTVAPTECS
EC50 [1]: 6.5 ng/mL
EC50 [2]: 4 ng/mL
AUC (serotype binding) [3]: 34
AUC (serotype binding) [4]: 31
HBV-gD in vitro neutralization (IC50 µg/ml) [5]: 3.06e-06 µg/mL
